Experimental data reported in EPA's CvTdb concentration-time database.
The source gives many values for each of these; only a part stands here.

Key:
[1] = system: Rat; experiment: concentration in brain after dosing; conditions: 2.5 h; dosed: 2-Methyltetrahydrofuran; 10 mg/kg; oral; Male; F344
[2] = system: Rat; experiment: concentration in brain after dosing; conditions: 10 min; dosed: 2-Methyltetrahydrofuran; 100 mg/kg; oral; Female; Harlan Sprague Dawley
[3] = system: Rat; experiment: concentration in brain after dosing; conditions: 2 min; dosed: 2-Methyltetrahydrofuran; 30 mg/kg; oral; Female; F344
[4] = system: Rat; experiment: concentration in brain after dosing; conditions: 0.5 h; dosed: 2-Methyltetrahydrofuran; 10 mg/kg; iv; Female; F344
[5] = system: Rat; experiment: concentration in brain after dosing; conditions: 8 h; dosed: 2-Methyltetrahydrofuran; 400 mg/kg; oral; Male; F344
[6] = system: Rat; experiment: concentration in brain after dosing; conditions: 4 h; dosed: 2-Methyltetrahydrofuran; 400 mg/kg; oral; Female; F344
[7] = system: Rat; experiment: concentration in brain after dosing; conditions: 8 min; dosed: 2-Methyltetrahydrofuran; 30 mg/kg; oral; Female; F344
[8] = system: Rat; experiment: concentration in brain after dosing; conditions: 8 h; dosed: 2-Methyltetrahydrofuran; 100 mg/kg; oral; Male; Harlan Sprague Dawley
[9] = system: Rat; experiment: concentration in brain after dosing; conditions: 4 min; dosed: 2-Methyltetrahydrofuran; 10 mg/kg; oral; Female; F344
[10] = system: Rat; experiment: concentration in brain after dosing; conditions: 0.25 h; dosed: 2-Methyltetrahydrofuran; 10 mg/kg; iv; Male; F344
[11] = system: Rat; experiment: concentration in brain after dosing; conditions: 10 min; dosed: 2-Methyltetrahydrofuran; 10 mg/kg; iv; Male; F344
[12] = system: Rat; experiment: concentration in plasma after dosing; conditions: 4 min; dosed: 2-Methyltetrahydrofuran; 10 mg/kg; oral; Male; F344
[13] = system: Rat; experiment: concentration in plasma after dosing; conditions: 0.25 h; dosed: 2-Methyltetrahydrofuran; 30 mg/kg; oral; Male; F344
[14] = system: Rat; experiment: concentration in plasma after dosing; conditions: 3 h; dosed: 2-Methyltetrahydrofuran; 30 mg/kg; oral; Female; F344
[15] = system: Rat; experiment: concentration in plasma after dosing; conditions: 4 min; dosed: 2-Methyltetrahydrofuran; 10 mg/kg; oral; Female; F344
[16] = system: Rat; experiment: concentration in plasma after dosing; conditions: 10 min; dosed: 2-Methyltetrahydrofuran; 400 mg/kg; oral; Female; Harlan Sprague Dawley
[17] = system: Rat; experiment: concentration in plasma after dosing; conditions: 0.25 h; dosed: 2-Methyltetrahydrofuran; 10 mg/kg; iv; Male; F344
[18] = system: Rat; experiment: concentration in plasma after dosing; conditions: 4 h; dosed: 2-Methyltetrahydrofuran; 400 mg/kg; oral; Female; Harlan Sprague Dawley
[19] = system: Rat; experiment: concentration in plasma after dosing; conditions: dosed: Bromochloroacetic acid, 100 mg/kg, oral, Female, F344
[20] = system: Rat; experiment: concentration in plasma after dosing; conditions: dosed: Bromochloroacetic acid, 100 mg/kg, oral, Female, F344; remark: listed apart in the source
[21] = system: Rat; experiment: concentration in plasma after dosing; conditions: dosed: Bromochloroacetic acid, 100 mg/kg, oral, Male, F344
[22] = system: Rat; experiment: concentration in plasma after dosing; conditions: dosed: Bromochloroacetic acid, 100 mg/kg, oral, Female, F344; remark: listed apart in the source
[23] = system: Rat; experiment: concentration in plasma after dosing; conditions: 1 h; dosed: Fluorotelomer alcohol 8+2; 80 mg/kg; oral; Female; Harlan Sprague Dawley
[24] = system: Rat; experiment: concentration in plasma after dosing; conditions: dosed: Formamide, 600 mg/kg, oral, Female, Harlan Sprague Dawley
[25] = system: Rat; experiment: concentration in plasma after dosing; conditions: dosed: Formamide, 600 mg/kg, oral, Female, F344
[26] = system: Rat; experiment: concentration in plasma after dosing; conditions: dosed: Formamide, 300 mg/kg, oral, Female, Harlan Sprague Dawley
[27] = system: Rat; experiment: concentration in plasma after dosing; conditions: dosed: Formamide, 90 mg/kg, iv, Male, Harlan Sprague Dawley
[28] = system: Rat; experiment: concentration in plasma after dosing; conditions: dosed: Formamide, 90 mg/kg, iv, Male, Harlan Sprague Dawley; remark: listed apart in the source
[29] = system: Rat; experiment: concentration in plasma after dosing; conditions: dosed: Formamide, 600 mg/kg, oral, Male, Harlan Sprague Dawley
[30] = system: Rat; experiment: concentration in plasma after dosing; conditions: dosed: Formamide, 90 mg/kg, iv, Male, Harlan Sprague Dawley; remark: listed apart in the source
[31] = system: Rat; experiment: concentration in plasma after dosing; conditions: 0.5 h; dosed: Formamide; 30 mg/kg; iv; Female; F344
[32] = system: Rat; experiment: concentration in plasma after dosing; conditions: 10 min; dosed: Pyridine; 50 mg/kg; oral; Male; Harlan Sprague Dawley
[33] = system: Rat; experiment: concentration in plasma after dosing; conditions: 6 h; dosed: Pyridine; 50 mg/kg; oral; Female; Harlan Sprague Dawley
[34] = system: Rat; experiment: concentration in plasma after dosing; conditions: 5 h; dosed: Pyridine; 200 mg/kg; oral; Female; Harlan Sprague Dawley
[35] = system: Rat; experiment: concentration in plasma after dosing; conditions: 40 min; dosed: Pyridine; 50 mg/kg; oral; Male; Harlan Sprague Dawley
[36] = system: Rat; experiment: concentration in plasma after dosing; conditions: 2 h; dosed: Pyridine; 10 mg/kg; oral; Male; Harlan Sprague Dawley
[37] = system: Rat; experiment: concentration in plasma after dosing; conditions: dosed: Pyridine, 100 mg/kg, oral, Male, F344
[38] = system: Rat; experiment: concentration in plasma after dosing; conditions: 2 h; dosed: Pyridine; 10 mg/kg; oral; Male; Harlan Sprague Dawley; remark: listed apart in the source

CC1CCCO1 (stereo not given) [2-Methyltetrahydrofuran]
Conditions	concentration in brain [µg/g]	concentration in plasma [ng/mL]
[1]	0.0218	–
[2]	51.9	–
[3]	6.51	–
[4]	1.98	–
[5]	49.9	–
[6]	85.8	–
[7]	12	–
[8]	0.0777	–
[9]	2.07	–
[10]	5.71	–
[11]	5.61	–
[12]	–	2570
[13]	–	19600
[14]	–	539
[15]	–	2750
[16]	–	162000
[17]	–	6840
[18]	–	155000

O=C(O)C(Cl)Br (stereo not given) [Bromochloroacetic acid]
Conditions	concentration in plasma [ng/mL]
[19], 0.25 h	25800
[19], 6 h	2090
[20], 7 h	4230
[20], 20 min	25400
[21], 4.5 h	2060
[21], 10 min	3930
[22], 4.5 h	5290
[22], 10 min	12800

OCCC(F)(F)C(F)(F)C(F)(F)C(F)(F)C(F)(F)C(F)(F)C(F)(F)C(F)(F)F [Fluorotelomer alcohol 8+2]
Conditions	concentration in plasma [ng/mL]
[23]	627

NC=O [Formamide]
Conditions	concentration in plasma [ng/mL]
[24], 10 min	327000
[24], 20 h	383000
[25], 0.5 h	628000
[25], 48 h	138000
[26], 8 h	375000
[26], 12 h	300000
[27], 5 min	132000
[27], 36 h	16200
[28], 2 h	162000
[28], 96 h	2700
[29], 8 h	688000
[29], 12 h	651000
[30], 0.5 h	156000
[30], 48 h	9800

Conditions	concentration in plasma [ng/mL]
[31]	38700

c1ccncc1 [Pyridine]
Conditions	concentration in plasma [ng/mL]
[32]	35700
[33]	15200
[34]	83900
[35]	37500
[36]	1770
[38]	1640

[37]
Conditions	concentration in plasma [ng/mL]
0.5 h	47700
6 h	67000
